About 4,300 (8.3%) of roughly 52,000 compounds were called active. Cut-off read from the data, not from the text of the source: active = survival mostly below about 52% (no sharp cut-off); inactive = mostly above about 56%. This is one part of the list.
test system: DeltatarO mutant; experiment: S. aureus survival, RN4220 and DeltatarO strains – OD600, teichoic acid synthesis inhibitors, primary screen (AID 463173); details: S. aureus RN4220 wild type/DeltatarO growth, OD600, 18 h, active compounds read low, screened at 18.75 µg/mL (by protocol)

SMILES | survival
CCCCOc1cccc(C(=O)N(Cc2ccc(Br)o2)C2CCS(=O)(=O)C2)c1 (stereo not drawn) | inactive: 81%
NC(=O)CSc1oc(-c2cccs2)nc1S(=O)(=O)c1ccc(Br)cc1 | inactive: 119%
O=C(Nc1cccc(Cl)c1)C1CCN(S(=O)(=O)Cc2ccccc2)CC1 | inactive: 55%
Cc1ccc(NC(=O)CCn2cnc3ccccc3c2=O)cc1C | inactive: 81%
Cc1ccc(CNS(=O)(=O)c2cc(Br)cc3c2N(C(=O)C2CC2)CC3)cc1 | inactive: 55%
Cc1cccc2c(=O)cc(CSCC(=O)Nc3ccc(Cl)cc3)[nH]c12 | inactive: 100%
CCOc1ccc(C(=O)Nc2ccc(-c3nnc4n3CCCCC4)cc2)cc1OCC | inactive: 69%
Cc1ccc(Cn2c(=O)n(Cc3ccccc3)c(=O)c3c(C)c(C)sc32)cc1 | inactive: 81%
Cc1ccc(CNC(=O)C(=O)NCC(c2ccco2)S(=O)(=O)c2ccc(C)cc2)cc1 (stereo not drawn) | inactive: 73%
CCOC(=O)Cn1c(=O)n(C2CCCCC2)c2nc(-c3ccc(OC)cc3)nc(C(N)=O)c21 | inactive: 77%
CC(C)(C)n1cnc2cc(NS(=O)(=O)c3ccccc3)ccc21 | inactive: 86%
COc1ccc(Cc2nc3ccc(C(=O)NCCc4ccc(OC)c(OC)c4)cc3o2)cc1 | inactive: 77%
Cc1cc(C)c(S(=O)(=O)Nc2cc(Cl)c3oc4c(c3c2)C(=O)CCC4)cc1C | inactive: 69%
Cn1c(=O)n(C)c2cc(CNCc3ccccc3)ccc21 | inactive: 88%
Cc1oc(-c2ccc(Cl)cc2)nc1CN1CCCC(C(=O)NCCc2ccccc2)C1 (stereo not drawn) | active: 44%
N/C(CN1CCCC1=O)=N\O | inactive: 87%
CCc1cccc(C)c1NC(=O)c1cc(S(=O)(=O)N2CCC3(CC2)OCCO3)ccc1F | inactive: 116%
COc1ccc(C2CC(=O)c3cc(-c4nc(-c5cccc([N+](=O)[O-])c5)cs4)c(=O)n(-c4ccc(F)cc4)c3C2)cc1 (stereo not drawn) | inactive: 51%
COc1cccc(/C=N/NC(=O)CSCc2ccccc2)c1O | inactive: 69%
CC(=O)c1ccc(NC(=O)CSc2c(C(C)C)cnc3c2c(=O)n(C)c(=O)n3C)cc1 | inactive: 85%
Cc1ccc(S(=O)(=O)N2CCCc3cc(NS(=O)(=O)c4ccc(C)c(C)c4)ccc32)cc1 | inactive: 67%
CC(C)(C)C(=O)Nc1nc2nc(-c3ccccc3)cc(=O)n2[nH]1 | inactive: 66%

SMILES | survival
CCCCNC(=O)CN1C(=O)c2c(c3ccccc3n2C)C1c1ccc(OC)cc1 (stereo not drawn) | inactive: 82%
Cc1ccc2oc(-c3cccc(NC(=O)c4ccc(N5CCC(C)CC5)c([N+](=O)[O-])c4)c3)nc2c1 | inactive: 122%
COc1ccc(Nc2nc(Nc3ccc(OC)cc3OC)nc(N3CCOCC3)n2)c(OC)c1 | active: 14%
COc1ccc(-c2nc(C)c(CCNS(=O)(=O)c3ccc(F)cc3)s2)cc1OC | inactive: 96%
CCc1ccc2[nH]c(=O)c(C(c3nnnn3C(C)(C)C)N3CCc4ccccc43)cc2c1 (stereo not drawn) | inactive: 96%
COC(=O)c1ccccc1NC(=O)c1cn2c3c(ccc(Cl)c3c1=O)OC(C)C2 (stereo not drawn) | inactive: 84%
CC(C)c1ccc(CN(Cc2ccco2)c2cnc(S(C)(=O)=O)nc2C(=O)Nc2ccccc2)cc1 | active: 44%
CCCCNC(=O)C1CCN(c2nc3ccc(C)cc3[nH]2)CC1 | inactive: 91%
O=C(Cn1c(=O)n(Cc2ccc(C(=O)NCc3ccc4c(c3)OCO4)cc2)c(=O)c2ccccc21)Nc1ccc(F)cc1F | inactive: 88%
COc1ccc(C2(N3CCN(c4cccc(C)c4C)CC3)C(=O)c3ccccc3C2=O)cc1 | inactive: 83%
Cc1c(-c2nnc(SCC(=O)Nc3ccc(Br)cc3)o2)nnn1-c1ccc(F)cc1 | inactive: 96%
COC(=O)c1ccn(-c2nc(-c3ccc(Cl)cc3)cc(C(F)(F)F)n2)n1 | active: 13%
O=C(CS(=O)(=O)c1cccc2nsnc12)N1CCN(c2ccccc2)CC1 | inactive: 105%
CCOc1ccc(CNCCSc2nnnn2C)cc1OC | inactive: 65%
Cc1ccc(-n2ncc3c(N4CCN(c5ccc(F)cc5)CC4)ncnc32)cc1 | inactive: 94%
COc1ccc2oc(-c3ccc(NC(=O)c4ccc(Cl)cc4Cl)cc3)nc2c1 | inactive: 62%
COc1ccc(CNC(=O)C(=O)Nc2cccc(C)c2C)cc1 | inactive: 61%
O=c1c(-c2cc(-c3ccccc3)nc3c2COc2ccccc2-3)coc2ccc(Cl)cc12 | inactive: 133%
COc1ccc(C)cc1NC(=O)c1c(C)nc2ccccn12 | inactive: 69%
CC1CC(NNc2ccc(Br)cc2)NC(=S)N1 (stereo not drawn) | inactive: 91%
CCc1ccc(NC(=O)C2CCCN(c3nnc(C)c4c(C)n(-c5ccccc5)nc34)C2)cc1 (stereo not drawn) | inactive: 81%
O=C(Nc1cc(Cl)ccc1Cl)c1cc(S(=O)(=O)N2CCc3ccccc3C2)ccc1F | inactive: 88%

SMILES | survival
COc1cc(NC(=O)CCS(=O)(=O)c2ccc3c(c2)n(C)c(=O)c(=O)n3C)cc(OC)c1 | inactive: 88%
Cc1cccc(NC(=O)N2CCN3CCCCC3C2)c1C (stereo not drawn) | inactive: 77%
COc1cccc(NC(=O)Cn2c(-c3nonc3N)nc3ccccc32)c1 | inactive: 78%
COc1ccccc1N1CCN(c2csc3ccccc3c2=O)CC1 | inactive: 67%
CCc1ccc(Sc2cc(C(=O)NCCCN3CCC(C)CC3)c3ccccc3n2)cc1 | inactive: 77%
N#CC(C#N)=C(C#N)c1cc2c([nH]1)CCCC2 | inactive: 81%
COC(=O)c1cc2oc3ccccc3c2n1Cc1ccccc1Cl | inactive: 72%
CCOc1ccc(/C=C/c2nc(C#N)c(N3CCC(C)CC3)o2)cc1 | inactive: 98%
COc1ccccc1CNC(=O)CCCCn1c(=O)c2ccccc2n(CC(=O)Nc2cccc(Cl)c2)c1=O | inactive: 81%
COCCNC(=O)CN1C(=O)COc2ccc(S(=O)(=O)N3CCCC3)cc21 | inactive: 124%
CCN(CC)CCOC(=O)c1ccc(NC(=O)c2cc3cc(OC)ccc3oc2=O)cc1 | inactive: 73%
CCOC(=O)N1CCc2c(sc3c2C(=O)NC(c2ccc(C(=O)OC)cc2)N3)C1 (stereo not drawn) | inactive: 64%
CCc1ccc(NC(=O)Cn2c(=O)n(CCCC(=O)NCCc3ccc(OC)c(OC)c3)c(=O)c3ccccc32)cc1 | inactive: 77%
CC(C)C(=O)c1cn(CC(=O)N2CCCC2)c2ccccc12 | inactive: 90%
CCOc1ccc(Sc2cc(C(=O)NCc3ccccc3Cl)c3ccccc3n2)cc1 | inactive: 95%
Cc1ccc(CNS(=O)(=O)c2ccc3c(c2)CC(C)N3C(=O)C2CCC2)cc1 (stereo not drawn) | inactive: 69%
O=C(O)CC1SC(=O)N(c2ccccc2)C1=O (stereo not drawn) | inactive: 95%
O=C(Cn1c(-c2cccs2)cc2ccccc21)N1CCN(c2ccc(F)cc2)CC1 | inactive: 85%
COC(=O)c1c(-c2cccs2)csc1NC(=O)c1ccc(C)cc1 | inactive: 74%
COc1ccccc1NC(=O)Cn1c(=O)n(CC2CCC(C(=O)NCCc3ccccc3)CC2)c(=O)c2ccccc21 (stereo not drawn) | inactive: 85%
CCOc1ccc(CNC(=O)C2CCN(C(=O)N3CC(CC)Oc4ccc(C)cc43)CC2)cc1OC (stereo not drawn) | inactive: 77%
Cc1cc(NC(=O)c2cc(-c3ccc(Cl)c(Cl)c3)on2)n(-c2ccccc2)n1 | inactive: 63%

SMILES | survival
Cc1cc(Br)ccc1NC(=O)c1c(C)oc2ncnc(N3CCCCC3)c12 | inactive: 102%
Cc1ccccc1N1CC(c2nc3ccccc3n2Cc2ccc(Br)cc2)CC1=O (stereo not drawn) | active: 25%
Cc1cc2oc3c(c(=O)c2cc1C)C(c1ccc(C(C)C)cc1)N(c1nc(C)c(C)s1)C3=O (stereo not drawn) | inactive: 73%
CCCNC(=O)C1CCN(c2nc3ccc(C)cc3[nH]2)CC1 | inactive: 81%
CCCOc1ccc(CNC(=O)C2CCN(C(=O)c3sccc3-n3cccc3)CC2)cc1 | inactive: 79%
COc1ccc(-c2nc3ccccc3n3c(-c4ccc(OC)cc4)c4c(=O)n(C)c(=O)n(C)c4c23)cc1 | inactive: 84%
Cc1ccc(CNC(=O)CCCN2C(=O)CCn3nc(-c4cccn4C)cc32)cc1 | inactive: 120%
CCOC(=O)c1ccc2c(c1)N(Cc1ccc(F)cc1Cl)C(=O)c1ccccc1S2 | inactive: 80%
Cc1cnc(=O)[nH]c1SCC(=O)Nc1cc(C(F)(F)F)ccc1Cl | inactive: 84%
c1ccc(CCn2nnnc2C(c2cccnc2)N2CCc3ccccc32)cc1 (stereo not drawn) | inactive: 82%
Cc1c(Cl)cccc1-n1nc(C)c2c(C)cc(=O)n(CC(=O)N3CCCc4ccccc43)c21 | inactive: 78%
NC1=NC(c2cc(F)cc(F)c2)n2c(nc3ccccc32)N1 (stereo not drawn) | inactive: 95%
COc1ccc(C(C(=O)NCc2ccccc2)N(Cc2ccco2)C(=O)c2cnccn2)cc1 (stereo not drawn) | inactive: 71%
Cc1ccc(CNC(=O)CCc2c(C)nc3c4c(C)cc(C)nc4nn3c2C)cc1 | inactive: 87%
Cc1ccc(Cl)cc1NC(=O)CC1Sc2ccccc2NC1=O (stereo not drawn) | inactive: 93%
CCN1CCN(c2cc(C)c3cc(NC(=O)/C=C/c4ccc(C)cc4)ccc3n2)CC1 | inactive: 52%
COc1cccc(NC(=O)N(Cc2cn(C)c3ccccc23)C2CCCCCC2)c1 | active: -13%
Cc1cccc(C(=O)Nc2ccc(N3CCC(N4CCCCC4)CC3)c(C(=O)O)c2)c1 | inactive: 100%
COc1cc(CNc2ccc3[nH]c(=O)[nH]c3c2)cc(Br)c1OCc1ccccc1F | inactive: 68%
Cc1cccc(CN2CCN(CC(=O)Nc3c(C)cccc3C)S2(=O)=O)c1 | inactive: 130%
CC1CCCCN1C(=O)c1ccccc1NC(=O)c1ccco1 (stereo not drawn) | inactive: 101%
COCCNC(=O)CSc1nc(-c2ccccc2)[nH]c1-c1ccc(C)cc1 | inactive: 81%

From PubChem BioAssay AID463173 (ICCB-Longwood Screening Facility, Harvard Medical School, 2010)
